Measurements: PubChem BioAssay AID1645887 (National Center for Advancing Translational Sciences (NCATS), 2021)
“And” between values parts separate entries of the source, which are not always exact repeats. Identical values can stand only once. In all, about 16,000 compounds went through this assay and about 40 (0.2%) were called active. Not shown: some 1% with an inconclusive outcome. Calls come from the whole dose curve; as a rule, active = well fitted activation curve with a large enough effect; inconclusive = small, poorly fitted or top-dose-only effect, or another doubt; inactive = no such curve, though single readings can be large or run the other way. The list shows a part of the results.

target: Rap guanine nucleotide exchange factor 4 (Homo sapiens) (UniProt Q8WZA2); test: Validation qHTS for agonist of cAMP-regulated guanine nucleotide exchange factor 4 (EPAC2); details: EPAC2 Rap1B BODIPY-GDP exchange, fluorescence; activation: hits give high values;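 note: exchange makes BODIPY-GDP fluorescence drop when released from Rap1B; series mostly up to about 150 µM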
In short: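 Fluorescent exchange assay: 100 nM EPAC2 with 250 nM RAP1B-BODIPY-GDP and 50 uM GDP; compound added, 5 min at room temperature, then read (ex 480/em 540 nm) every 5 min for 30 min. Normalized to 6.5 mM cAMP agonist control.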
% is set by controls: 0 for no effect and ±100 for the full control effect.

Chain of UniProt Q8WZA2 (Q8WZA2 whole entry, looked up): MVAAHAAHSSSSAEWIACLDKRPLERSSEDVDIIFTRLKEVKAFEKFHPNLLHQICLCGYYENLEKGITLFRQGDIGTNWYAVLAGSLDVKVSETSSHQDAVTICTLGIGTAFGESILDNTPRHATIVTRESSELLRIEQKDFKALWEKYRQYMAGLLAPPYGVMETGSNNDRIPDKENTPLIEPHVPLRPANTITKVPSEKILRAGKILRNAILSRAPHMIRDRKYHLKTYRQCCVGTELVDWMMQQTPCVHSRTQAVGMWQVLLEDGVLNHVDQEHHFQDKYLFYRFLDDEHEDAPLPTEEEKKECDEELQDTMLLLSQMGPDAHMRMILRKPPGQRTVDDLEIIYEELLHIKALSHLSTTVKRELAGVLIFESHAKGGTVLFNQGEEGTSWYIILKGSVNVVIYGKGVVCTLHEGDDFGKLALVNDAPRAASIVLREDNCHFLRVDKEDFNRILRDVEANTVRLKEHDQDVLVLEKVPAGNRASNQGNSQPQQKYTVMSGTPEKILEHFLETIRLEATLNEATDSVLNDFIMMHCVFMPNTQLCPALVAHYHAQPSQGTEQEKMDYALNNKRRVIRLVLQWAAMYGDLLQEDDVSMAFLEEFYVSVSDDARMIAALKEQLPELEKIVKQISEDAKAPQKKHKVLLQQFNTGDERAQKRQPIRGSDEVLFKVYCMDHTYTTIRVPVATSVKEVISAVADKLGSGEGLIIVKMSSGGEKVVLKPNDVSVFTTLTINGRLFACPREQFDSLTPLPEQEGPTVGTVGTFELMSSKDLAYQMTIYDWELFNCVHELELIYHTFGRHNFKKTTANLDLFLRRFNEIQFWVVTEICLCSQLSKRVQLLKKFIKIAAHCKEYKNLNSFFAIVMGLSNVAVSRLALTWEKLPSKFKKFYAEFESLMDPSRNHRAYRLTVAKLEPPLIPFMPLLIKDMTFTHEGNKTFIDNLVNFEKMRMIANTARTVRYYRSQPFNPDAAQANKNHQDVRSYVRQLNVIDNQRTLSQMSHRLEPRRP

activation, inactive:
COc1cccc(Nc2ncc3nc(CCc4ccccc4)c(=O)n(CCC#N)c3n2)c1 5.96%
N=C(CC(O)COc1ccccc1-c1ccccc1)N1CCCCC1 (configuration not stated) -5.25%
Cc1cccnc1-c1cccc2c1OC(CNC(=O)/C=C/c1cccs1)C2 (configuration not stated) 6.73%
CN(C)c1ncc2ncc(=O)n(CCc3ccccc3)c2n1 -16.3%
COc1ccc(CNc2nc(-c3ccccc3OC)nc3ccccc23)c(OC)c1 3.13%
CC1(C)Oc2ccc(C#N)cc2[C@@H](OC2=CC(=O)CC2)[C@@H]1O 0.361% and -1.29%
Cc1ncc2c(c1CNS(=O)(=O)N(C)C)CCN(C(=O)c1[nH]c3ccc(Cl)cc3c1C)C2 8.96%
CC1=CC2C(CC1=O)C(C)=CCC2C(C)C (configuration not stated) -21.5%
Cc1csc[n+]1CC(=O)c1ccc(I)cc1 -3.87%
CCNC(=O)[C@@H]1CCCN1C(=O)[C@H](CCCN=C(N)N)NC(=O)[C@H](CC(C)C)NC(=O)[C@@H](Cc1c[nH]c2ccccc12)NC(=O)[C@H](Cc1ccc(O)cc1)NC(=O)[C@H](CO)NC(=O)[C@H](Cc1c[nH]c2ccccc12)NC(=O)[C@H](Cc1cnc[nH]1)NC(=O)[C@@H]1CCC(=O)N1 -4.82%
NCCCCN -7.16% and -19.4%
COC(=O)c1ccc(C(=O)N2CCc3c(C(=O)NC(C)c4ccco4)c(OC)cc(=O)n3CC2)cc1 (configuration not stated) -5.31%
CN(Cc1ccc(C(C)(C)C)cc1)Cc1cccc2ccccc12 20.1% and -3.64%
COc1ccc(CNc2cc(-c3ccoc3)ncn2)c(OC)c1 -10.9%
COc1cc2c(cc1OC)[C@@H]1C(=O)c3ccc4c(c3O[C@@H]1CO2)C=CC(C)(C)O4 -12%
C(=C\c1c[nH]c2ccccc12)/c1cc[n+](C2CCCCC2)cc1 0.606%
CCOC(=O)c1ccc(N(C(=O)c2ccccc2)c2ccccc2)cc1 -10.4%
CCCCCN=c1ccn(Cc2ccccc2)c2ccccc12 2.77%
COc1ccc(CN2[C@@H](CC(=O)O)c3ccc(C(F)(F)F)cc3S2(=O)=O)cc1 -7.78%
CC(O)[C@@H]1NC(=O)[C@H](Cc2ccccc2)NC(=O)[C@H](C(C)O)NC(=O)[C@H](CCCCN)NC(=O)[C@H](Cc2c[nH]c3ccccc23)NC(=O)[C@H](Cc2ccccc2)NC(=O)[C@H](Cc2ccccc2)NC(=O)[C@H](CC(N)=O)NC(=O)[C@H](CCCCN)NC(=O)[C@@H](NC(=O)CNC(=O)[C@H](C)N)CSSC[C@@H](C(=O)O)NC(=O)[C@H](CO)NC1=O (some centres not stated) -0.92%
CCCCCCCCNC(C)C(O)c1ccc(SC(C)C)cc1 (configuration not stated) -9.26%
O=C(c1ccncc1)N1CCC2(CCCN(c3ccncc3)C2)CC1 -8.96%
CC(=O)CC(c1ccc([N+](=O)[O-])cc1)c1c(O)c2ccccc2oc1=O (configuration not stated) -14.7%
O=C(O)c1cc([N+](=O)[O-])ccc1NCCCc1ccccc1 -25% and -0.259% and -34.1%
O=C(O)c1cc(NCc2cc(O)ccc2O)ccc1O -2.79%
COc1ccccc1-c1cc(NCc2ccccc2)ncn1 -14%
CC(C)(O)C#Cc1ccc(C(=O)NCCN2Cc3ccccc3OC(c3ccccc3F)C2)o1 (configuration not stated) 2.11%
CN(C)c1ncc2nc(-c3cccs3)c(=O)n(Cc3cccs3)c2n1 10%
CCN(Cc1ccncc1)C(=O)[C@@H](CO)c1ccccc1 -4.33%
CCN(CC)CCOC(=O)c1cccnc1 -17.7%
CCC1(O)CC2CN(CCc3c([nH]c4ccccc34)[C@@](C(=O)OC)(c3cc4c(cc3OC)N(C=O)C3[C@]45CCN4CC=C[C@@](CC)([C@@H](OC(C)=O)[C@]3(O)C(=O)OC)[C@H]45)C2)C1 (some centres not stated) -3.06%
Oc1cc(-c2nc3ccccc3s2)cc2c1OCCN(Cc1cccn1-c1ccccn1)C2 7.3%
Cc1c(C(=O)NCC2CCCN(C)C2)cnn1-c1ncc2c(n1)-c1ccccc1CCC2 (configuration not stated) -3.51%
CCCn1c(=O)c2[nH]c(-c3ccc(OCC(=O)Nc4ccc(C(C)=O)cc4)cc3)nc2n(CCC)c1=O -1.61%
O=c1c(CCc2ccccc2)nc2cncnc2n1C1CC1 2.7%
COC(=O)[C@H](CC(C)C)N(Cc1ccccc1)S(=O)(=O)N(Cc1ccccc1)[C@@H](CC(C)C)C(=O)OC 1.78%
CC(C)C[C@H](NC(=O)[C@H](CCCCN)NC(=O)[C@H](CCCNC(=N)N)NC(=O)[C@H](C)NC(=O)[C@H](CO)NC(=O)[C@H](CCCCN)NC(=O)[C@H](CCCNC(=N)N)NC(=O)[C@H](C)NC(=O)CNC(=O)[C@@H](NC(=O)[C@H](Cc1ccccc1)NC(=O)CNC(=O)CNC(=O)[C@@H](N)Cc1ccccc1)[C@H](C)O)C(=O)N[C@@H](C)C(=O)N[C@@H](CC(N)=O)C(=O)N[C@@H](CCC(N)=O)C(=O)O 5.55%
O=C(NCC1Cc2cc(F)cc(-c3cnccn3)c2O1)C1COc2ccccc2O1 (configuration not stated) -0.427%
NC(=O)c1ccc[n+]([C@@H]2O[C@H](COP(=O)([O-])OP(=O)(O)OC[C@H]3O[C@@H](n4cnc5c(N)ncnc54)[C@H](O)[C@@H]3O)[C@@H](O)[C@H]2O)c1 9.61% and 1.7%
CN1CCN(c2ncc3nc(-c4cccc(C#N)c4)c(=O)n(C)c3n2)CC1 -30.7%
COCC(=O)N1CCC2(CC1)CN(C(=O)Nc1ccccc1)C2 -10.7%
CC(=O)O[C@H]1C[C@@H]2CC[C@@H]3[C@H](CC[C@@]4(C)[C@H]3C[C@H](N3CC[N+](C)(C)CC3)[C@@H]4OC(C)=O)[C@@]2(C)C[C@@H]1N1CC[N+](C)(C)CC1 -6.49%
